About 540 (0.36%) of roughly 150,000 compounds showed an effect of 50% or more. The list shows a part of the results.
tested on: Plasmodium falciparum; assay: Primary screen in NF54 nanoGlo assay, in single point, at 2uM, 72h; a lower Z score goes with more inhibition; assay type: functional, Erythrocyte; details: timepoint 72 hour

SMILES	% Inhibition [%]	Z score
CC(OC(=O)c1ccc(N2CCCC2)nc1)C1CCOC1 (configuration not stated)	-7	0.92
CC1CCN([C@@H]2[C@H](O)[C@H](CO)O[C@@H]2CNS(=O)(=O)c2ccccc2)CC1	26	-2.92
CN(CC#N)CC(=O)N(C)Cc1ccc(F)cc1	-7	0.67
CCCCC1CC1C(=O)NC1Cc2ccccc2C1 (configuration not stated)	-9	0.85
Cn1ccc(C(=O)N2CC=CC23CCCCC3)n1	-10	1.12
Cc1ccnc([C@@H](NC(=O)c2ncoc2C)C2CC2)c1	-4	0.77
CC1Cc2ccc(F)cc2C1NCCc1ccc(S(N)(=O)=O)cc1 (configuration not stated)	-2	0.28
C#CCN(C)CC[C@@H]1CC[C@H](O)[C@@H](C(=O)NCc2ccc(OC)cc2)O1	7	-0.81
COc1cc2c(N3CCCC4C(NC(=O)C(F)F)C(C)(C)C43)ncnc2cc1F (configuration not stated)	-2	0.37
O=C1COc2ccc(Cl)cc2CN1C1CCCCCC1	30	-3.35
CC(C)(C)OC(=O)N1CC(OC(=O)Nc2cccc(F)c2)C1	-4	0.52
Cc1nc2c(s1)CCC[C@@H]2Nc1ncnc2c1CCNCC2	-1	0.23
COc1nn(C)c(C)c1NC(=O)N1CCN(c2cc(C)nc(N)n2)CC1	-5	0.85
O=C(c1ccc(F)cc1)N1Cc2cccnc2C1	-13	1.54
Cc1cc(C)c(C(=O)N2CCC[C@H](C(=O)NCc3ccccc3C)C2)[nH]1	7	-0.97
NC(=O)[C@H]1CCCN(C(=O)c2coc(CN3CCN(c4ccccc4F)CC3)n2)C1	-11	1.52
Cc1nn(C)c2c(-c3ccccc3)c(O)ccc12	1	-0.06
CC(C)(CNC(=O)NCCOc1ccc(F)c(F)c1)C(N)=O	3	-0.33
c1nc2n(n1)C[C@@H](NCc1noc(C3CC3)n1)CC2	-14	1.62
COc1ccnc(N2CCN(c3ccc(C(F)(F)F)nn3)CC2)c1	-12	2.28
COc1ccc2c(c1)N1CCN(c3ccccc3)CC1C(C(=O)N1CCOCC1)C2 (configuration not stated)	-7	1.31
Cc1nc(NC(=O)C2(CF)CCC2)nn1C	3	-0.42

SMILES	% Inhibition [%]	Z score
COc1ccc(-c2ccc(-c3cnco3)cc2)c(OC)n1	-3	0.49
Cc1ccc(CN2CC(N(CC(C)C)C3CCOCC3)C2)cc1	-10	1.85
COc1cc2cc(c1)C(=O)NCCCC(=O)N[C@H]1CN(C(=O)CCn3nc(C)c(C)c3C)CC[C@@H]1OCc1cccc(c1)O2	-1	0.17
C[C@@H]1CN(C(=O)c2cc(F)cc(C#N)c2)CC[C@@]1(O)C1CCOCC1	-3	0.68
CCC1CCCCN1Cc1cc(F)cc2c1OC(c1ccsc1)OC2 (configuration not stated)	-5	0.98
CCC(NCC1CCCS1(=O)=O)c1ccc(F)cc1F (configuration not stated)	-10	2.03
O=C1CCC(N2CCCC(O)C2)CCN1Cc1ccccc1Cl (configuration not stated)	-5	0.73
COc1ccc(CN2C(=O)COC[C@H]2C(=O)NCc2ccccc2OC)c(OC)c1	0	0.03
COc1ccc([C@@H]2c3cccn3-c3ccccc3N2C(=O)CN(C(=O)Nc2ccc(C)cc2C)C(C)C)cc1	-7	0.85
Cc1ccc2c(c1)CN(CCC(=O)NCC1CCCO1)CC(C)O2 (configuration not stated)	23	-2.92
CCc1nn(C)cc1CNC(=O)NCC1CC12CCc1ccccc12 (configuration not stated)	-10	1.58
CCc1nnsc1C(=O)NCc1ccc(N2CCCC2)cc1	13	-1.41
O=C(c1cc(C2CC2)nc2ccccc12)N1CCCCCC1	-5	0.69
O=C(NCCC1=CCCCC1)C1CCN(c2nc3cccnc3s2)CC1	16	-1.44
Cc1ccc([C@H](C)NC(=O)CNCc2sccc2C)cc1	8	-1.06
O=C(NCCCN1C(=O)CCC1=O)NCC(F)(F)F	0	0.02
CCn1cnnc1CN(C)c1nc(N)nc(C)c1Cl	-6	0.67
CNC(=O)c1ccnc(N(C)Cc2csc(-c3cccs3)n2)c1	2	-0.34
CNC(=O)CCCN(C)C(=O)Cc1ccc(Br)cc1C	-14	1.83
CC1(C)CN(c2ncnc3[nH]c(Cl)cc23)[C@H]2COC[C@@H]2O1	-10	1.05
O=C(CCc1ccc(F)c(F)c1)N[C@H]1COC[C@@H]1N1CCCCC1	-7	1.46
CC(C)CN1CCN(C(=O)c2cn3ccnc(-c4ccc(F)cc4)c3n2)CC1	1	-0.18

SMILES	% Inhibition [%]	Z score
C#CCCCn1nc(C2CCN(C(=O)OC(C)(C)C)CC2)c2c1CCOC2	-11	1.47
CCOCC(C)(C)NC(=O)c1ccc(CCC(C)(C)O)cc1	0	0.04
Clc1ccc(CN2CCn3nc(CNc4cnccn4)cc3C2)o1	-12	2.1
N#Cc1ccc(OCC(=O)c2ccc3c(c2)CCCC(=O)N3)cc1	-10	0.88
CC(C)CCN(CC(=O)NC(C)C)C1CC1	4	-0.51
O=C(Nc1nc(C2CC3CCC2C3)cs1)NC1CCc2[nH]cnc2C1 (configuration not stated)	4	-0.35
CN1[C@@H](c2ccc(Cl)cc2)[C@@H](C(=O)NCCc2c[nH]cn2)C[C@@]1(C)C(=O)O	-4	0.77
O=C1COC2(CCN(C(=O)NCc3ccncc3OCC(F)F)CC2)N1	-13	1.98
CCC=C(C)C(=O)NC1CCN(S(C)(=O)=O)CC1	4	-0.5
CN(CCC1(O)CCCC1)C(=O)Cc1cnc2ccccn12	-10	1.97
CC(C)(CN1CCC([C@@H](O)CCc2ccccc2)CC1)N1CCOCC1	0	0.07
CN(Cc1cc(C[C@@H]2C[C@H](N(C)C)C2(C)C)no1)c1ccccc1	14	-1.8
O=S(=O)(c1ccc(F)c(Cl)c1)N(Cc1cccs1)C1CCOCC1	-12	1.93
Cc1cnc(NC(=O)[C@@H]2CCCCN2C(=O)C(C)C)s1	-10	1.53
COc1cnc(NC(=O)N(Cc2ccoc2)C2CC2)s1	-8	1.51
COc1ccc(Cl)c(NC(=O)[C@@H]2CCCCC(=O)N2)c1	-5	0.68
Cc1nc(N2CCc3[nH]nc(C(C)C)c3C2)c2nc(C)oc2n1	-6	0.91
Cc1nnc(NCC(C)(C)C2(O)CCCC2)s1	-9	1.4
CS(=O)(=O)c1c(-c2ccccc2)n(-c2ccc(Cl)cc2)c2nc3ccccc3nc12	-7	1.07
Cc1cc(OC(=O)Cc2csc(-c3cccnc3)n2)cc(C)c1Cl	3	-0.48
CCOc1cccc2nnc(NC(=O)Nc3ccccc3C(F)(F)F)n12	-3	0.56
Cc1cccnc1NCCN[C@@H](C)CN1CCCCCC1	0	-0.05

SMILES	% Inhibition [%]	Z score
COc1ccc(Cc2nc(-c3cccc(-c4csc(C)n4)c3)no2)cc1Cl	-7	0.84
COc1cc(C)ccc1C(=O)N[C@@H](C1CCOCC1)C1(CO)CCC1	-6	0.79
COCCN(CC(=O)Nc1c(C)n[nH]c1C)Cc1ccc(C)o1	1	-0.09
CC(C)(C)OC(=O)N[C@H](Cc1ccc(Cl)cc1)C(=O)O	-2	0.32
O=C(O)CCNCc1ccc(Br)c(F)c1	-2	0.32
CC(C)C1=NO[C@H](C(=O)NCCc2ccc(S(N)(=O)=O)cc2)C1	-8	1.04
CC[C@@H](CNC(=O)c1cncn1C)N1CCOCC1	-4	0.44
O=C(c1csc(S(=O)(=O)Nc2cccc(-c3ccno3)c2)c1)N1CCCCCC1	7	-0.82
CCc1nccn1[C@@H](C)CC(=O)N1CCN(c2nnc(C)s2)CC1	-5	0.75
Cc1ccc(C(F)(F)F)cc1NC(=O)N1CCC[C@H]1c1nncn1C	31	-3.99
Cc1c(C)[n+]([O-])c([C@@H](c2ccc(F)c(F)c2)C2C(=O)OC(C)(C)OC2=O)n1C	-2	0.28
COc1ncccc1[C@H]1CCN(C(=O)c2c[nH]c(C(F)(F)F)c2)C1	-18	2.08
Cc1c(Cl)cc(C(=O)N2CCN[C@@H]3CS(=O)(=O)C[C@@H]32)cc1Cl	20	-2.52
CCc1c(C(=O)Nc2cnc(O)cc2C)cnn1-c1ccccc1	-6	0.84
CC(C)(C)c1coc(CC2CCN(Cc3nc(=O)[nH][nH]3)CC2)n1	1	-0.15
Cn1ncc2c(N3CCCC3)nc(C(=O)NCCCN3CCCC3)nc21	-11	1.07
CCCn1ncc(CN2CCC[C@H]2COC)c1C	11	-1.51
CCN(Cc1c(C(=O)N2C[C@@H](C)O[C@@H](C)C2)nc2ccc(Cl)cn12)C1CC1	-7	1.03
CN(Cc1cn2ccccc2c1C#N)C1CCCC1	-2	0.18
N#C[C@@H](C(=O)c1cc2ccccc2[nH]1)c1nc2ccccc2s1	16	-2.03

Reference: ChEMBL document CHEMBL4888484, “Replenishing the malaria drug discovery pipeline: Screening and hit evaluation of the MMV Hit Generation Library 1 (HGL1) against asexual blood stage Plasmodium falciparum ,using a nano luciferase reporter read-out” (2022)
